Consider 63 sequences from the supplement of paper PMC10681739.

Whole data set: some 2,700 sequences, median “arbitrary fluorescence units” near 4,100, cut for the highest 2% near 54,000. This is one part of the list.

The experiment addresses T1, ETS1 (UniProt P14921).
T1 sequence: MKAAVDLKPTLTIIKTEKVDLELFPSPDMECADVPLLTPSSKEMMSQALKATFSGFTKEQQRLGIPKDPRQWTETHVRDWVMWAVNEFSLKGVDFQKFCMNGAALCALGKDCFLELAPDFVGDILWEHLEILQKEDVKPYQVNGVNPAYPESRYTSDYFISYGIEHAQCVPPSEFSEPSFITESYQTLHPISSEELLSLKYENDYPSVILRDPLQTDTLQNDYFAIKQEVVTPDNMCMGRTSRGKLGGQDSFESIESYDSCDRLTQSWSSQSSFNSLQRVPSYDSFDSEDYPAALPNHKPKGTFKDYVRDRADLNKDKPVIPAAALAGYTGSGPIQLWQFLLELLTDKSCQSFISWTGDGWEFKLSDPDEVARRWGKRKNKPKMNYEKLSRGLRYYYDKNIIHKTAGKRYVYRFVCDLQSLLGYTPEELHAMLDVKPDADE
In words: ETS1 binding intensity (PBM fluorescence) (arbitrary fluorescence units); higher = stronger binding. Conditions: ETS1 concentration 10 nM. The method, then:
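gcPBM on wild-type 36-bp genomic probes with two neighbouring ETS1 sites (4-24 bp apart). Recombinant human ETS1 (10 nM) was detected with anti-ETS1 antibody fluorescence. Values are medians over 3 replicate spots. The probes sit in constant array flanks that are not printed.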
As for ACTGCCTTCCTGAATTACTAGGTCCAGGAAGTGTGG, the ETS1 binding intensity came to 1130.

With CTCCCCCGGAAGTGAAAGTGCGGGGATCCGCCGGCC, the ETS1 binding intensity stood at 11400.

In the case of TGAACCAATGAGGAAGCCAAACTTCCTCTGGCCTGG, the ETS1 binding intensity amounted to 773.

For the sequence GTCAAGGAGGAAACCTTCATGCACGGAAGTTTCTCG, the ETS1 binding intensity was 219.

Sequence AAAGGCGGCGGAAGGTGATCGAATTCCGGTGATGCG registered an ETS1 binding intensity of 895.

CAGCTGGTGCCATCCGCCCACGGGAAGTGTTTGGTT came in with an ETS1 binding intensity of 715.

The sequence GACTCATGCCACTTCCTGCACTTCCTCCTGACCTCC displayed an ETS1 binding intensity of 13500.

Sequence GTCCTGCCTCCCGGAAGTGATTTCCTCTGGGTTACG returned an ETS1 binding intensity of 14300.

Sequence TGGCCCGGAACACGCTGTCCTCGCGCTTCCGCCGGG returned an ETS1 binding intensity of 813.

Take TGATTTCCGCTTTCTCCCCAGTGATTGCTTCCTTCA: the ETS1 binding intensity was determined as 68300.

With GACCACAGGAAATGCCAAAAACCACTTCCCATGGTT, the ETS1 binding intensity stood at 14400.

In the case of TGGAAAGGAAATAAATTCCAAAGGCAGGAAGTGACC, the ETS1 binding intensity was found to be 2640.

GATATTTCCTGGTGGTCGCTGTAATACGGAAAACTT displayed an ETS1 binding intensity of 14000.

In turn, CGCCTTTCACTTTCCGCCCTCTTTCCGCCCCCTTCT displayed an ETS1 binding intensity of 1750.

As for TGGGCTGGGCTTCCTCTTTTCACTTCCTTGGGGTAG, the ETS1 binding intensity amounted to 2310.

On to CAGGATGAGGAAACGTGGTTAACAGGAAGAAGCCCT, for which the ETS1 binding intensity was found to be 554.

Sequence TAGTCAGGAAACCACAGATGCTGGAGAGGATGTGGA yielded an ETS1 binding intensity of 275.

With ATCACATCCTGAAGGCTTGTGCTTGGCAGGAAGCAA, the ETS1 binding intensity was 7540.

Regarding CTTTTCATCAACCCGGAAGGAAGCAGCCGCCGGTCG, the ETS1 binding intensity came to 736.

GGTTGCCAGCAGGAAGGCAGGTTTCCTCACACCAAG had an ETS1 binding intensity of 294.

Take GGGCAGGAAAGCCCATTCCCTACAGCCCGGAACTCC: the ETS1 binding intensity came out at 204.

In turn, ACCACTCACTCCAGGAAAAGGAAGTGGCAGGTGTGA gave an ETS1 binding intensity of 654.

Sequence CGCCTTTTCCGCGTCACTCCGTAACCGGAAGTGAAT returned an ETS1 binding intensity of 14300.

For GAGGTCTCAGGAAACTAACCTTGTTTCCTGGTGCTG, the ETS1 binding intensity was found to be 443.

Turning to CCCATGGGCACATCCCCTCTGGGGAAGTGAGGGAGC, the ETS1 binding intensity is 405.

As to CTTTGAAAGGAAGCTGCTTTAGCATATCCTTTCTGT, the ETS1 binding intensity is 572.

For the sequence TTTCTGGCTCTGCTTCCTGCTTCCTCTGGATGGACG, the ETS1 binding intensity amounted to 6620.

In turn, TCAAAGGGAAATGGTTTTAGTGGTTCAGGAAATGAA came in with an ETS1 binding intensity of 345.

GTTGGCAGAGGAAGCTCACCCCGAGGAAGTCTCTCG registered an ETS1 binding intensity of 258.

Take GGAGCGGAAAAGTAATTTGATCCCGCATTTCCTGCT: the ETS1 binding intensity worked out at 2090.

Consider CGCCGCCATCCGCCGCCGCAGCCAGCTTCCGCCGCC, for which the ETS1 binding intensity was found to be 3580.

Take GGAGGTCGCAGCCGGAAGCGGAAGAGGCGCTCGGAG: the ETS1 binding intensity is 6900.

In the case of CTAATGCTGCATAGGAAGGGGGATGTGGCTGCAGGA, the ETS1 binding intensity was 244.

CAGCTTTAACATCCTGTTGCATATCCTTGGTAGAAC yielded an ETS1 binding intensity of 21500.

AAACGGAAGCCCAGCGTCACCAGCTTGCTTCCTGAG yielded an ETS1 binding intensity of 476.

Sequence GCCCCTCCACCCTTCCTGCCCGGAAGTCCTGCGCGC had an ETS1 binding intensity of 6050.

Consider CTATGGTAGGAAACCCAGAAAACAGGAAGTGGCCTC, for which the ETS1 binding intensity stood at 3030.

With TGAGCACATCCTCGCCGGCGCCCCCTTCCGCGCTGC, the ETS1 binding intensity stood at 1410.

On to GTAGCAGACAGGAAGCTAGAAGAGGAAGTCTCAGAT, for which the ETS1 binding intensity is 8100.

In turn, GGGTGCGGAAACGCGGCAGCCGCGGCCGGATGCTGC returned an ETS1 binding intensity of 2710.

CAACGACTCACACAGGAAGGAAGCCCCCATCTGGTT yielded an ETS1 binding intensity of 476.

As for TTCTTCACAAGCGGATGTCACTTCCTGCCTGTGACA, the ETS1 binding intensity is 17200.

For the sequence GCAGCTTGAACATCCGGGAGCAGGAAAGTGGGAGGA, the ETS1 binding intensity is 12900.

ATGCCTTTTCCCGTTGTGGCTGGGACTTCCGCTCCG showed an ETS1 binding intensity of 4400.

Regarding GGAGCTTCCTCCAAGACCAGGCTGCCACATCCTGTG, the ETS1 binding intensity amounted to 6860.

In turn, GCACTTTCCTGGTAAATGCTCTCCTTAGGAAGTAAC returned an ETS1 binding intensity of 728.

Regarding TTTTTACCACATCCTGGTAAGGGGGAAATGGCAGGT, the ETS1 binding intensity was found to be 7900.

For CGGCGTCAGCGGAACGGGCGGCTTCCGGCCGCGGCG, the ETS1 binding intensity was 8120.

Sequence TGAAGGCCAGGATGCGTGCTACCCGGATGTGTGCCC yielded an ETS1 binding intensity of 1090.

On to CCAACAGGAAGTGCTGTTTGGCTAGTTTCCTCCCAC, for which the ETS1 binding intensity turned out to be 16500.

Consider TGCCTTTTTCGGAAACACCCCCTTCCTCTCTTGACA, for which the ETS1 binding intensity turned out to be 259.

The sequence TTCTTCACTTCCTCAGTCTATCTGTTTCCTCTGATT returned an ETS1 binding intensity of 4770.

CCTCCCGGAAGCCGCTGGCCCGCGCCGGAAAAGGTG: the ETS1 binding intensity was determined as 7300.

Consider ACTGCCTTCCTGGCCTGGTGGTGAGAGGAAGTCGGG, for which the ETS1 binding intensity was found to be 2260.

As for ACAGAGGAAGTTCGGGGCATGTCTGTCATCCGCCTG, the ETS1 binding intensity was determined as 955.

Sequence CATACGTTTCCTATAATCTAACCACATCCTGTGACT registered an ETS1 binding intensity of 4560.

Take TAAACTTTCCGTCCGCGCGCCACAGCCGGAACTATA: the ETS1 binding intensity stood at 740.

For TGCCCTCACACAGGAAGTCAGGAAACCCAGGGGGCA, the ETS1 binding intensity was 8570.

Sequence TCTGCCTGGACATCCAGGCATTTCCGTACATCCTCT showed an ETS1 binding intensity of 1080.

Regarding GTAATACTTCGGGGAAATGCAGGATGCAGCTGCTGC, the ETS1 binding intensity is 243.

TAGCATCCTTTCCTGTTTTTCTCCTTCCTGCTGCCT returned an ETS1 binding intensity of 15600.

In the case of TTGCGCGGCACGGAAACTCACTTCCGGCCCTGCGCA, the ETS1 binding intensity was found to be 22400.

AGGGGTGTCGACGGAAACTCGGAAATGGTCCCCTAG registered an ETS1 binding intensity of 428.
